The text below walks through data of PubChem BioAssay AID463173 (ICCB-Longwood Screening Facility, Harvard Medical School, 2010).

Structures are written as SMILES. The campaign covered roughly 52,000 compounds. About 1,700 (3.3%) were called active. Rule as the data show it: active = survival mostly below about 52% (no sharp cut-off); inactive = mostly above about 56%. This is one part of the list.

The assay has as its system Wild type. As to the kind of experiment: growth inhibition of S. aureus wild type versus tarO mutant, primary screen, teichoic acid synthesis inhibitors, RN4220, OD600 (AID 463173). Particulars: S. aureus RN4220 wild type/DeltatarO growth, OD600, 18 h, hits give low values, screened at 18.75 µg/mL (by protocol).
In the case of `COc1ccc2c(CNCCc3ccco3)c(C(=O)O)n(Cc3ccccc3)c2c1`, the survival is inactive: 115%.
The result for `CCOC(=O)c1ccccc1NC(=O)c1ccncc1` reads inactive: 94%.
The value for `Cc1cc(S(=O)(=O)Nc2ccc(-c3ccc(N4CCCCCC4)nn3)cc2)c(C)cc1Cl` was inactive: 69%.
`COCCNC(=O)c1cccc(-n2c(C)nc3cccnc32)c1`: the survival is inactive: 66%.
The value for `Cc1nc(-c2cccnc2)sc1CCNS(=O)(=O)c1ccc(F)cc1` was inactive: 83%.
The result for `CCc1sc(Nc2cccc(C)c2C)nc1-c1cc2cccc(OC)c2oc1=O` reads inactive: 71%; that for `COc1ccc(-c2cc(C(F)(F)F)nc(SCC(=O)NCCc3ccccc3)n2)cc1OC`, inactive: 81%; that for `Cc1ccc(NC(=O)c2cc(S(=O)(=O)N3CCc4ccccc43)ccc2F)cc1Cl`, inactive: 76%.
The result for `COc1cc(CNn2cnnc2)ccc1OCC(=O)NC(C)(C)C` reads inactive: 101%; that for `COc1cc(OC)cc(-n2c(=O)c3sccc3n(Cc3c(C)cc(C)cc3C)c2=O)c1`, inactive: 141%.
As for `COc1cccc(C(=O)Nc2cccc(-c3cn4c(C)csc4n3)c2)c1OC`, the survival was inactive: 120%.
The result for `O=C(Nc1cccc(Cl)c1)c1cc2c(=O)[nH]c3ccccc3c2s1` reads inactive: 63%.
The value for `Cc1cccc(N2CCN(C(=O)CCn3c(=O)c4cccn4c4cccnc43)CC2C)c1` (centres undefined) was inactive: 76%.
Turning to `Cc1cccc(-c2nc3c4ccccc4nc(N4CCN(c5cc(C)ccc5C)CC4)n3n2)c1`, the survival is inactive: 132%.
The result for `O=C(Nc1ccc(-c2cn3cccnc3n2)cc1)c1cc(Br)ccc1Cl` reads inactive: 87%; that for `Cc1nnc(N2CCCC(C(=O)NCCc3ccc(Cl)cc3)C2)c2nn(-c3ccccc3)c(C)c12` (centres undefined), inactive: 68%; that for `CCOc1ccc(-c2nn(CC(=O)NC3CCCC3)c3c2cnc2ccc(F)cc23)cc1`, inactive: 148%.
The value for `CCc1ccccc1NC(=O)c1cnc2sc(N3CCCC3)nn2c1=O` was inactive: 126%.
For `CC(=O)N1CC=C2C(C#N)=C(N)C(C#N)(C#N)C(Cc3ccccc3)C2C1` (centres undefined), the survival was inactive: 118%.
The result for `COc1cccc(N2CCN(C(=O)Cn3c(-c4cccs4)cc4ccccc43)CC2)c1` reads inactive: 126%.
As to `COc1ccc(CN2C(=O)c3ccccc3C2C(=O)NCCc2ccccc2)c(OC)c1` (centres undefined), the survival was inactive: 87%.
For `CC1=C(C(=O)Nc2ccc(C)cc2C)C(c2cccs2)n2nc(SCc3ccccc3Cl)nc2N1` (centres undefined), the survival was inactive: 76%.
The result for `CCN(Cc1ccccc1)C(=O)Cn1c(=O)n(-c2ccc(C)c(C)c2)c(=O)c2c(C)c(C)sc21` reads inactive: 91%.
The result for `O=c1oc2ccccc2cc1-c1cn2cc(Cc3ccc(Cl)cc3)sc2n1` reads inactive: 80%; that for `O=c1cc(-c2ccccc2)n2c(SCc3ccc(F)cc3)nnc2[nH]1`, inactive: 102%.
As to `Cc1cn2c(=O)cc(COC(=O)COc3ccccc3C)nc2s1`, the survival is inactive: 60%.
The value for `CCOC(=O)c1cnc2c(C)c(C)ccc2c1NCCCCCO` was inactive: 110%; that for `CCOC(=O)c1c(C)[nH]c(CCC(=O)NCc2ccc(N(C)C)cc2)c1C` was inactive: 73%.
The value for `CCn1cc(C(=O)N2CCN(c3ccccc3F)CC2)c(=O)c2cc(S(=O)(=O)N(C)C)ccc21` was inactive: 132%.
In the case of `O=C(Nc1cccc(C(F)(F)F)c1)c1cc2ccc3cccnc3c2[nH]1`, the survival is inactive: 68%.
The result for `Cc1ccc(-c2nc(C)c(CCNS(=O)(=O)c3ccc(F)c(C(F)(F)F)c3)s2)cc1` reads active: -6%.
The result for `COc1ccc(CNc2oc(-c3ccc(COc4ccccc4C)o3)nc2C#N)cc1` reads inactive: 89%; that for `Cc1ccc(C)c(OC(=O)CSc2nnc(CNC(=O)c3ccccc3)o2)c1`, inactive: 114%.
The result for `O=C(N/N=C/c1c(O)ccc2ccccc12)C1CC12CCC2` (centres undefined) reads inactive: 131%; that for `CC1=C(c2ccc(C)cc2)S(=O)(=O)NC1=NCCCN1CCN(c2ccc(F)cc2)CC1`, inactive: 60%.
As to `Cc1ccc(NC(=O)CSc2nc(-c3ccco3)cc(C(F)(F)F)n2)cc1`, the survival is inactive: 137%.
Regarding `Cc1ccc(NC(=O)CN2C(=O)CCSc3ccc(S(=O)(=O)N4CCCC4)cc32)cc1C`, the survival is inactive: 78%.
The result for `CC(C)c1ccc(OC(=O)c2cc(-c3ccccc3)on2)cc1` reads inactive: 106%; that for `CCOc1ccc(-n2nc3ccc(NC(=O)COc4ccc(OC)cc4)cc3n2)cc1`, inactive: 95%.
For the molecule `CCN(CC)c1ccc(NC(=O)CSc2nc(-c3cccs3)cc(C(F)(F)F)n2)cc1`, the survival was inactive: 124%.
The value for `Cc1ccc(NC(=O)Nc2nnc(N(C)Cc3ccccc3)s2)c(C)c1` was inactive: 90%; that for `CCN(CC)c1ccc(NS(=O)(=O)c2cc3[nH]c(=O)c(=O)[nH]c3cc2C)c(C)c1` was inactive: 71%.
In the case of `Cc1cc2oc(C(=O)Nc3ccc(S(=O)(=O)N4CCCCCC4)cc3)cc(=O)c2cc1C`, the survival was inactive: 80%.
On to `COc1cc(C)cc2oc(=O)c(CC(=O)NCc3cccc(Cl)c3)c(C)c12`, for which the survival is inactive: 75%.
Regarding `CCc1nc(Oc2cccc(F)c2)c2oc3ccccc3c2n1`, the survival is inactive: 81%.
For `CC(=O)N1CCc2c(sc3nc(SCC(C)C)n(-c4ccc(F)c(Cl)c4)c(=O)c23)C1`, the survival is inactive: 106%.
`CCCSc1ncc(Cl)c(C(=O)Nc2c(C(=O)Nc3ccc(C)cc3)oc3ccccc23)n1`: the survival was inactive: 81%.
The result for `O=C(NCCN1CCCC1)c1ccc2c(c1)OCCO2` reads inactive: 97%.
The result for `COC(=O)c1ccc(C2C(C(=O)Nc3ccccc3)=C(C)Nc3nc4ccccc4n32)cc1` (centres undefined) reads inactive: 77%; that for `Cc1ccc(Nc2nc(C)nc(N)c2S(=O)(=O)c2ccccc2)cc1`, inactive: 74%.
As for `CC1=C(C(=O)Nc2ccccc2)C(c2cccn2C)n2ncnc2N1` (centres undefined), the survival was inactive: 76%.
The result for `Cc1ccc(C)c(Cn2c(C3CC(=O)N(c4ccccc4C)C3)nc3ccccc32)c1` (centres undefined) reads inactive: 86%.
As to `CCN(CC)c1ccc(-c2nc(-c3ccccc3C)no2)cc1[N+](=O)[O-]`, the survival is inactive: 86%.
The result for `O=C(NCCc1ccccc1Cl)c1ccc2c(c1)nc1n2CCCCC1` reads inactive: 87%; that for `COc1ccc(Cn2c(=O)c3oc4ccccc4c3n(CC(=O)Nc3ccc(F)cc3F)c2=O)cc1`, inactive: 76%; that for `Cc1ccc(Cl)cc1N1CCN(Cc2nnc(-c3ccc4c(c3)OCO4)o2)CC1`, inactive: 84%.
In the case of `CC(C)(C)c1ccc(C(=O)NC2CCNCC2)cc1`, the survival is inactive: 108%.
The value for `Cc1cc(NC(=O)C2CCN(S(=O)(=O)c3ccc(Br)s3)CC2)ccc1Br` was inactive: 71%; that for `Cc1ccc(NC(=O)C2C3C=CC4(O3)C2C(=O)N(c2ccccc2F)C4C(=O)NC2CCCC2)cc1` (centres undefined) was inactive: 84%; that for `O=S(=O)(c1ccc2nc(N3CCN(c4cccc(Cl)c4)CC3)ccc2c1)N1CCCCC1` was inactive: 55%.
The value for `Cc1ccc(CNC(=O)CSc2n[nH]c(-c3ccc(F)cc3)n2)cc1` was inactive: 124%; that for `O=C(N/N=C/c1ccccc1)c1[nH]ncc1I` was inactive: 105%; that for `Fc1ccc(-c2noc3ncnc(NCCCN4CCN(c5ccccc5)CC4)c23)cc1` was inactive: 71%.
Consider `Cc1ccc2c(=O)cc(C(=O)Nc3sc4c(c3C(=O)NCc3cccnc3)CCCC4)oc2c1C`, for which the survival was inactive: 117%.
Consider `COc1ccc(Cn2ccc3nc(C)c(C(=O)NCc4ccc(F)cc4)cc3c2=O)cc1`, for which the survival was inactive: 101%.
The value for `O=c1oc2c(CN3CCN(CCO)CC3)c(O)ccc2cc1-c1ccccc1` was inactive: 74%.
The result for `COc1ccc(C(=O)NCC(c2ccc(N(C)C)cc2)N2CCc3ccccc32)c(OC)c1` (centres undefined) reads inactive: 79%.
The value for `COc1cccc(NC(=O)CC2NCCNC2=O)c1` (centres undefined) was inactive: 85%.
On to `Cc1ccc(NC(=O)CCc2c(C)nc3cc(-c4ccccc4)nn3c2C)cc1F`, for which the survival was inactive: 68%.
`COc1ccc(-c2nc3c(C#N)c[nH]n3c2NC2CCCC2)c(OC)c1`: the survival was inactive: 83%.
`CCc1cc(C(=O)Nc2cnn(Cc3ccccc3C)c2)no1`: the survival was inactive: 84%.
For the molecule `COc1ccc(S(=O)(=O)NCC(c2ccco2)N2CCOCC2)cc1OC` (centres undefined), the survival is inactive: 76%.
The value for `CCCCCNC(=O)CCCCCn1c(=O)[nH]c2ccsc2c1=O` was inactive: 62%.
As for `COc1ccc(CNC(=O)C2CCN(c3nc4ccccc4[nH]3)CC2)cc1OC`, the survival is inactive: 47%.
For `O=C(Nc1sc2c(c1C(=O)NCC1CCCO1)CCC2)c1cc(=O)c2ccccc2o1` (centres undefined), the survival was inactive: 82%.
The result for `Cc1nc2cc(N3CCN(C)CC3)c(NC(=O)C3CC3)cc2c(=O)n1Cc1ccccc1` reads inactive: 112%.
For `COCCCNc1oc(-c2ccc(COc3ccc(Cl)cc3)o2)nc1C#N`, the survival was inactive: 47%.
The result for `COc1ccc(Cn2c(=O)c3oc4ccccc4c3n(Cc3ccc(Cl)cc3)c2=O)cc1` reads inactive: 119%; that for `CCOC(=O)c1c(S(=O)(=O)N2CCCC(C(=O)Nc3cccc(C)n3)C2)c(C)n(C)c1C` (centres undefined), inactive: 82%.
The value for `CCOc1ccc(C2CC(=O)Nc3c2c(=O)nc(SCc2ccccc2C)n3C)cc1OC` (centres undefined) was inactive: 80%; that for `CCn1cc(C(=O)OCC(=O)Nc2cccc(C(C)=O)c2)c(=O)c2ccc(C)nc21` was inactive: 77%; that for `Cc1ccc2c(=O)cc(C(=O)Nc3cccc(C(F)(F)F)c3)oc2c1C` was inactive: 80%.
Turning to `Cc1cccn2c(=O)c3cc(C(=O)NC(C)c4ccccc4)c(=N)n(CCCO)c3nc12` (centres undefined), the survival was inactive: 77%.
Take `CCOC(=O)c1c(C)[nH]c(C)c1S(=O)(=O)N1CCCC(C(=O)N2CCN(c3ccccc3)CC2)C1` (centres undefined): the survival was inactive: 91%.
The result for `CCOCCc1nn2c(=O)cc(COC(=O)C3CCCCC3)nc2s1` reads inactive: 72%; that for `COC(=O)c1ccc(OCC2c3cc(OC)c(OC)cc3CCN2C(=O)c2ccc(F)cc2)cc1` (centres undefined), inactive: 88%.
The result for `O=C(Cn1nnc(-c2ccccc2Cl)n1)Nc1ccc(Br)cc1` reads inactive: 75%; that for `Cc1ccc(NC(=O)CSc2nnc3scc(-c4ccccc4)n23)cc1`, inactive: 43%.
For the molecule `O=C(O)c1nnc(Cl)c2ccccc12`, the survival was inactive: 90%.
